Source: the supplement of paper PMC4967469
pIC50: −log10 of the molar value. IC50 is the fitted dose that halves viability relative to control wells, and lower means more sensitive; a limit (>, <) means that the fit lies beyond the doses tested. AUC is the area under the same curve over the 256-fold range up to the top dose, as a fraction; values near 1 show little effect. A top dose marked as inferred comes from the curve model; the source does not state it. For some of these results: Where an entry number is given, a second screen of the drug exists; the two often differ.

Key:
Assay in all cases: Viability of human cancer cell lines after 72 h of drug (GDSC screen)
[1] = compound: Cc1ccc(-n2nc(C(C)(C)C)cc2NC(=O)Nc2ccc(OCCN3CCOCC3)c3ccccc23)cc1 [BIRB 0796]; conditions: top dose 10 µM; top dose inferred
Experimental: (§1)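 Human cancer cell lines in 384-well plates, medium with 10% serum, drug for 72 h over a 256-fold dose range (nine 2-fold or five 4-fold steps up to the top dose). Adherent lines were fixed and stained with the nucleic acid dye Syto60, suspension lines read with resazurin; signal relative to control wells, capped at 0 and 100%. One two-parameter sigmoid per drug and line, fitted in a mixed model over all curves with the slope shared within a line.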

[2] = compound: CC(C)=CC[C@@H](O)C1=CC(=O)c2c(O)ccc(O)c2C1=O [Shikonin]; conditions: top dose 16 µM; top dose inferred
Experimental: as §1

[3] = compound: NC(=O)c1ccc(N(C(N)=O)c2c(F)cccc2F)nc1-c1ccc(F)cc1F [VX-702]; conditions: top dose 2 µM; top dose inferred
Experimental: as §1

[4] = compound: O=C1NC(=O)c2c1c(-c1ccccc1Cl)cc1[nH]c3ccc(O)cc3c21 [Wee1 inhibitor 681640]; conditions: top dose 2 µM; top dose inferred
Experimental: as §1

[5] = compound: O=C(c1cc(Cc2n[nH]c(=O)c3ccccc23)ccc1F)N1CCN(C(=O)C2CC2)CC1 [Olaparib]
Experimental: as §1

[6] = compound: Cc1cc(N2CCOCC2)cc2[nH]c(-c3c(NC[C@@H](O)c4cccc(Cl)c4)cc[nH]c3=O)nc12 [BMS-536924]; conditions: top dose 4 µM; screen: GDSC drug entry 1091; top dose inferred
Experimental: as §1

[7] = compound: Cc1cccc(-c2[nH]c(C(C)(C)C)nc2-c2ccc3nccnc3c2)n1 [SB-525334]; conditions: top dose 20 µM; top dose inferred
Experimental: as §1

[8] = top dose 5 µM, screen: GDSC drug entry 1017, top dose inferred
[9] = top dose 10 µM, screen: GDSC drug entry 1495

Cell Line | AUC [1] | pIC50 [1] | AUC [2] | pIC50 [2] | AUC [3] | pIC50 [3] | AUC [4] | pIC50 [4] | AUC [5, 8] | pIC50 [5, 8] | AUC [5, 9] | pIC50 [5, 9] | AUC [6] | pIC50 [6] | AUC [7] | pIC50 [7]
42-MG-BA (glioma, adherent) | 0.968 | < 5.00 | 0.599 | 5.72 | 0.985 | < 5.70 | 0.948 | < 5.70 | 0.923 | < 5.30 | 0.884 | < 5.00 | 0.898 | < 5.40 | 0.939 | < 4.70
201T (lung adenocarcinoma, adherent) | 0.961 | < 5.00 | 0.474 | 6.08 | 0.95 | < 5.70 | 0.962 | < 5.70 | 0.976 | < 5.30 | – | – | – | – | 0.942 | < 4.70
647-V (bladder, adherent) | 0.978 | < 5.00 | 0.345 | 6.43 | 0.986 | < 5.70 | 0.959 | < 5.70 | 0.978 | < 5.30 | 0.89 | < 5.00 | 0.984 | < 5.40 | 0.963 | < 4.70
5637 (bladder, adherent) | 0.988 | < 5.00 | 0.869 | 4.90 | 0.989 | < 5.70 | 0.923 | < 5.70 | 0.916 | < 5.30 | 0.952 | < 5.00 | 0.977 | < 5.40 | 0.898 | < 4.70
23132-87 (stomach, adherent) | 0.97 | < 5.00 | 0.541 | 5.89 | 0.986 | < 5.70 | 0.968 | < 5.70 | 0.985 | < 5.30 | 0.921 | < 5.00 | 0.898 | < 5.40 | 0.945 | < 4.70
A431 (skin, adherent) | 0.98 | < 5.00 | 0.203 | 6.86 | 0.982 | < 5.70 | 0.919 | < 5.70 | 0.988 | < 5.30 | 0.901 | < 5.00 | 0.953 | < 5.40 | 0.957 | < 4.70
BFTC-905 (bladder, adherent) | 0.834 | 5.28 | 0.325 | 6.45 | 0.988 | < 5.70 | 0.873 | 5.83 | 0.989 | < 5.30 | 0.948 | < 5.00 | 0.847 | 5.63 | 0.979 | < 4.70
BICR78 (head and neck, adherent) | 0.869 | < 5.00 | 0.482 | 6.05 | 0.981 | < 5.70 | 0.772 | 6.05 | 0.939 | < 5.30 | 0.963 | < 5.00 | 0.859 | < 5.40 | 0.98 | < 4.70
BxPC-3 (pancreas, adherent) | 0.946 | < 5.00 | 0.366 | 6.39 | 0.982 | < 5.70 | 0.95 | < 5.70 | 0.983 | < 5.30 | 0.971 | < 5.00 | 0.92 | < 5.40 | 0.983 | < 4.70
C-33-A (cervix, adherent) | 0.966 | < 5.00 | 0.431 | 6.19 | 0.986 | < 5.70 | 0.974 | < 5.70 | 0.945 | < 5.30 | 0.848 | 5.13 | 0.867 | 5.44 | 0.781 | 5.08
CAL-29 (bladder, adherent) | 0.954 | < 5.00 | 0.612 | 5.68 | 0.977 | < 5.70 | 0.771 | 6.08 | 0.959 | < 5.30 | 0.912 | < 5.00 | 0.889 | < 5.40 | 0.983 | < 4.70
CAL-39 (cervix, adherent) | 0.985 | < 5.00 | 0.541 | 5.89 | 0.986 | < 5.70 | 0.91 | < 5.70 | 0.986 | < 5.30 | 0.984 | < 5.00 | 0.919 | < 5.40 | 0.902 | < 4.70
CAL-51 (breast, adherent) | 0.991 | < 5.00 | 0.126 | 7.08 | 0.987 | < 5.70 | 0.951 | < 5.70 | 0.955 | < 5.30 | 0.792 | 5.41 | 0.92 | < 5.40 | 0.988 | < 4.70
CAL-72 (osteosarcoma, adherent) | 0.978 | < 5.00 | 0.514 | 5.96 | 0.982 | < 5.70 | 0.769 | 6.05 | 0.97 | < 5.30 | 0.977 | < 5.00 | 0.933 | < 5.40 | 0.984 | < 4.70
CAL-85-1 (breast, adherent) | 0.967 | < 5.00 | 0.229 | 6.90 | 0.964 | < 5.70 | 0.967 | < 5.70 | 0.978 | < 5.30 | 0.909 | < 5.00 | 0.9 | < 5.40 | 0.941 | < 4.70
CAL-120 (breast, adherent) | 0.968 | < 5.00 | 0.575 | 5.77 | 0.98 | < 5.70 | 0.904 | < 5.70 | 0.977 | < 5.30 | 0.827 | 5.06 | 0.837 | 5.41 | 0.941 | < 4.70

Cell Line | AUC [1] | pIC50 [1] | AUC [2] | pIC50 [2] | AUC [3] | pIC50 [3] | AUC [4] | pIC50 [4] | AUC [5, 8] | pIC50 [5, 8] | AUC [5, 9] | pIC50 [5, 9] | AUC [6] | pIC50 [6] | AUC [7] | pIC50 [7]
COLO-205 (large intestine, suspension) | 0.988 | < 5.00 | 0.378 | 6.33 | 0.968 | < 5.70 | 0.963 | < 5.70 | 0.964 | < 5.30 | 0.98 | < 5.00 | – | – | 0.972 | < 4.70
DU-145 (prostate, adherent) | 0.783 | 5.32 | 0.261 | 6.72 | 0.521 | 6.84 | 0.572 | 6.69 | – | – | – | – | 0.928 | < 5.40 | 0.968 | < 4.70
HT-1080 (fibrosarcoma, adherent) | 0.963 | < 5.00 | 0.244 | 6.70 | 0.987 | < 5.70 | 0.852 | 5.89 | – | – | – | – | 0.988 | < 5.40 | 0.98 | < 4.70
KP-1N (pancreas, adherent) | 0.976 | < 5.00 | 0.519 | 5.95 | 0.986 | < 5.70 | 0.982 | < 5.70 | 0.986 | < 5.30 | 0.896 | < 5.00 | 0.944 | < 5.40 | – | –
MIA-PaCa-2 (pancreas, adherent) | 0.802 | 5.26 | 0.31 | – | 0.96 | < 5.70 | 0.959 | < 5.70 | 0.941 | < 5.30 | 0.962 | < 5.00 | – | – | 0.985 | < 4.70
NCI-H647 (non-small cell lung carcinoma, adherent) | 0.984 | < 5.00 | 0.549 | 5.86 | 0.985 | < 5.70 | 0.925 | < 5.70 | 0.974 | < 5.30 | 0.831 | 5.17 | – | – | 0.969 | < 4.70
NCI-H1693 (lung adenocarcinoma, adherent) | 0.941 | < 5.00 | 0.78 | 4.95 | 0.969 | < 5.70 | 0.97 | < 5.70 | – | – | – | – | 0.934 | < 5.40 | 0.828 | < 4.70
NCI-H2023 (lung adenocarcinoma, adherent) | 0.972 | < 5.00 | 0.865 | < 4.80 | 0.94 | < 5.70 | 0.929 | < 5.70 | – | – | – | – | 0.901 | < 5.40 | 0.964 | < 4.70
NCI-H2052 (mesothelioma, adherent) | 0.969 | < 5.00 | 0.379 | 6.38 | 0.978 | < 5.70 | 0.97 | < 5.70 | 0.978 | < 5.30 | – | – | – | – | 0.98 | < 4.70
NCI-H3122 (lung adenocarcinoma, adherent) | 0.987 | < 5.00 | 0.384 | 6.32 | 0.987 | < 5.70 | 0.956 | < 5.70 | 0.986 | < 5.30 | 0.953 | < 5.00 | – | – | 0.887 | < 4.70
OACM5-1 (oesophagus, semi-adherent) | 0.976 | < 5.00 | – | – | 0.984 | < 5.70 | 0.976 | < 5.70 | 0.986 | < 5.30 | 0.98 | < 5.00 | 0.856 | 5.41 | 0.906 | < 4.70
PA-1 (ovary, adherent) | 0.977 | < 5.00 | 0.271 | 6.57 | 0.993 | < 5.70 | 0.956 | < 5.70 | 0.924 | 5.30 | – | – | – | – | 0.974 | < 4.70
SK-OV-3 (ovary, adherent) | 0.967 | < 5.00 | 0.634 | 5.59 | 0.981 | < 5.70 | 0.942 | < 5.70 | – | – | – | – | 0.917 | < 5.40 | 0.949 | < 4.70
SNU-61 (large intestine, adherent) | 0.985 | < 5.00 | – | – | 0.985 | < 5.70 | 0.981 | < 5.70 | 0.948 | < 5.30 | 0.981 | < 5.00 | 0.979 | < 5.40 | 0.947 | < 4.70
T47D (breast, adherent) | 0.961 | < 5.00 | 0.39 | 6.37 | 0.969 | < 5.70 | 0.975 | < 5.70 | – | – | – | – | 0.884 | < 5.40 | 0.889 | < 4.70
